These results are taken from patent US20230383007A1 (BIOSION, published 2023).

To fix the notation:
T1: human TROP2-his protein (human, UniProt P09758 27-274)
T1 construct: also called biotin labeled human TROP2-his protein
T1 sequence: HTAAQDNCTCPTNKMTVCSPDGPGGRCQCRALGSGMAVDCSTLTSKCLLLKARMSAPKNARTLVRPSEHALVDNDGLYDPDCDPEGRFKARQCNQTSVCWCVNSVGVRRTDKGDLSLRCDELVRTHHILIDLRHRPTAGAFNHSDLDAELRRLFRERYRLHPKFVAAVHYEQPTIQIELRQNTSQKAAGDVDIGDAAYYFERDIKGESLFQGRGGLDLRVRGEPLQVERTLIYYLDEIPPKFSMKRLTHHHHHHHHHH

B1: 01-9F-CDR-V1-Fc (Fc fusion)
heavy: QVQLVESGGGSVQAGGSLRLSCVVSGLPYERYCVAWFRQGPGKEREGVARILSDGTTSYSDSVKGRFTISKDNAKNTLYLQMNSLKSEDTATYYCAAEAFRPFTPSEGDCTTVLGIDYWGKGTPVTVSS[… human IgG1 Fc …]
notes: Heavy chain only antibody (VHH-Fc); tested as cell supernatant; also called 01-9F-CDR-Fc-V1
B2: 01-9F-CDR-V2-Fc (Fc fusion)
heavy: QVQLVESGGGSVQAGGSLRLSCVVSGLPYERYCVAWFRQGPGKEREGVARILSDGTTSYSDSVKGRFTISKDNAKNTLYLQMNSLKSEDTATYYCAAEAFRPFTPSDADCTTVLGIDYWGKGTPVTVSS[… human IgG1 Fc …]
notes: Heavy chain only antibody (VHH-Fc); tested as cell supernatant; also called 01-9F-CDR-Fc-V2
B3: 01-9F-CDR-V11-V8-Fc (Fc fusion)
heavy: EVQLVESGGGLVQPGGSLRLSCAASGLPFSRYCVAWFRQAPGKGLEGVARILSDATTSYSDTVKGRFTISKDNAKNSLYLQMNSLRAEDTAVYYCAAEAFRPFTPSDADCTTVLGIDYWGQGTTVTVSS[… human IgG1 Fc …]
notes: Humanized heavy chain only antibody (VHH-Fc); also called 01-9F-Fc-CDRV11-V8
B4: 01-9F-CDR-V11-V19-Fc (Fc fusion)
heavy: EVQLVESGGGLVQPGGSLRLSCAASGLTYSRYCVAWFRQAPGKGLEGVARILSDATTSYSDTVKGRFTISRDNAKNTLYLQMNSLRAEDTAVYYCAAEAFRPFTPSDADCTTVLGIDYWGKGTTVTVSS[… human IgG1 Fc …]
notes: Humanized heavy chain only antibody (VHH-Fc); also called 01-9F-Fc-CDRV11-V19
B5: 01-9F-CDR-V11-V4-Fc (Fc fusion)
heavy: EVQLVESGGGLVQPGGSLRLSCAVSGLTYSRYCVAWFRQAPGKGLEGVARILSDATTSYSDTVKGRFTISRDNAKNSLYLQMNSLRAEDTAVYYCAAEAFRPFTPSDADCTTVLGIDYWGQGTTVTVSS[… human IgG1 Fc …]
notes: Humanized heavy chain only antibody (VHH-Fc); also called 01-9F-Fc-CDRV11-V4
B6: 01-9F-CDR-V11-V14-Fc (Fc fusion)
heavy: EVQLVESGGGLVQPGGSLRLSCAASGLTYERYCVAWFRQAPGKGLEGVARILSDATTSYSDTVKGRFTISRDNAKNSLYLQMNSLRAEDTAVYYCAAEAFRPFTPSDADCTTVLGIDYWGQGTTVTVSS[… human IgG1 Fc …]
notes: Humanized heavy chain only antibody (VHH-Fc); also called 01-9F-Fc-CDRV11-V14
B7: 01-9F-CDR-V11-V6-Fc (Fc fusion)
heavy: EVQLVESGGGLVQPGGSLRLSCAVSGLTYSRYCVAWFRQAPGKGLEGVARILSDATTSYSDTVKGRFTISKDNAKNSLYLQMNSLRAEDTAVYYCAAEAFRPFTPSDADCTTVLGIDYWGQGTTVTVSS[… human IgG1 Fc …]
notes: Humanized heavy chain only antibody (VHH-Fc); also called 01-9F-Fc-CDRV11-V6
B8: 01-9F-CDR-V11-V17-Fc (Fc fusion)
heavy: EVQLVESGGGLVQPGGSLRLSCAASGFTYSRYCVAWFRQAPGKGLEGVARILSDATTSYSDTVKGRFTISKDNAKNTLYLQMNSLRAEDTAVYYCAAEAFRPFTPSDADCTTVLGIDYWGKGTTVTVSS[… human IgG1 Fc …]
notes: Humanized heavy chain only antibody (VHH-Fc); also called 01-9F-Fc-CDRV11-V17
B9: 01-9F-CDR-V11-V7-Fc (Fc fusion)
heavy: EVQLVESGGGLVQPGGSLRLSCAASGFPYSRYCVAWFRQAPGKGLEGVARILSDATTSYSDTVKGRFTISKDNAKNSLYLQMNSLRAEDTAVYYCAAEAFRPFTPSDADCTTVLGIDYWGQGTTVTVSS[… human IgG1 Fc …]
notes: Humanized heavy chain only antibody (VHH-Fc); also called 01-9F-Fc-CDRV11-V7
B10: 01-9F-CDR-V11-V3-Fc (Fc fusion)
heavy: EVQLVESGGGLVQPGGSLRLSCAVSGLTFSRYCVAWFRQAPGKGLEGVARILSDATTSYSDTVKGRFTISKDNAKNSLYLQMNSLRAEDTAVYYCAAEAFRPFTPSDADCTTVLGIDYWGQGTTVTVSS[… human IgG1 Fc …]
notes: Humanized heavy chain only antibody (VHH-Fc); also called 01-9F-Fc-CDRV11-V3
B11: 01-9F-CDR-V11-V2-Fc (Fc fusion)
heavy: EVQLVESGGGLVQPGGSLRLSCAVSGFTYSRYCVAWFRQAPGKGLEGVARILSDATTSYSDTVKGRFTISKDNAKNSLYLQMNSLRAEDTAVYYCAAEAFRPFTPSDADCTTVLGIDYWGQGTTVTVSS[… human IgG1 Fc …]
notes: Humanized heavy chain only antibody (VHH-Fc); also called 01-9F-Fc-CDRV11-V2
B12: 01-9F-CDR-V11-V13-Fc (Fc fusion)
heavy: EVQLVESGGGLVQPGGSLRLSCAASGLTFERYCVAWFRQAPGKGLEGVARILSDATTSYSDTVKGRFTISKDNAKNSLYLQMNSLRAEDTAVYYCAAEAFRPFTPSDADCTTVLGIDYWGQGTTVTVSS[… human IgG1 Fc …]
notes: Humanized heavy chain only antibody (VHH-Fc); also called 01-9F-Fc-CDRV11-V13
B13: 01-9F-CDR-V11-V12-Fc (Fc fusion)
heavy: EVQLVESGGGLVQPGGSLRLSCAASGFTYERYCVAWFRQAPGKGLEGVARILSDATTSYSDTVKGRFTISKDNAKNSLYLQMNSLRAEDTAVYYCAAEAFRPFTPSDADCTTVLGIDYWGQGTTVTVSS[… human IgG1 Fc …]
notes: Humanized heavy chain only antibody (VHH-Fc); also called 01-9F-Fc-CDRV11-V12
B14: 01-9F-CDR-V11-V9-Fc (Fc fusion)
heavy: EVQLVESGGGLVQPGGSLRLSCAASGLPYSRYCVAWFRQAPGKGLEGVARILSDATTSYSDTVKGRFTISRDNAKNSLYLQMNSLRAEDTAVYYCAAEAFRPFTPSDADCTTVLGIDYWGQGTTVTVSS[… human IgG1 Fc …]
notes: also called 01-9F-Fc-CDRV11-V9
B15: 01-9F-CDR-V11-V21-Fc (Fc fusion)
heavy: EVQLVESGGGLVQPGGSLRLSCAASGLTYSRYCVAWFRQAPGKGLEGVARILSDATTSYSDTVKGRFTISKDNAKNTLYLQMNSLRAEDTAVYYCAAEAFRPFTPSDADCTTVLGIDYWGKGTTVTVSS[… human IgG1 Fc …]
notes: Humanized heavy chain only antibody (VHH-Fc); also called 01-9F-Fc-CDRV11-V21
B16: 01-9F-CDR-V11-V16-Fc (Fc fusion)
heavy: EVQLVESGGGLVQPGGSLRLSCAASGLTYERYCVAWFRQAPGKGLEGVARILSDATTSYSDTVKGRFTISKDNAKNSLYLQMNSLRAEDTAVYYCAAEAFRPFTPSDADCTTVLGIDYWGQGTTVTVSS[… human IgG1 Fc …]
notes: Humanized heavy chain only antibody (VHH-Fc); also called 01-9F-Fc-CDRV11-V16
B17: 01-9F-CDR-V11-V18-Fc (Fc fusion)
heavy: EVQLVESGGGLVQPGGSLRLSCAASGLTFSRYCVAWFRQAPGKGLEGVARILSDATTSYSDTVKGRFTISKDNAKNTLYLQMNSLRAEDTAVYYCAAEAFRPFTPSDADCTTVLGIDYWGKGTTVTVSS[… human IgG1 Fc …]
notes: Humanized heavy chain only antibody (VHH-Fc); also called 01-9F-Fc-CDRV11-V18
B18: 01-9F-CDR-V11-V22-Fc (Fc fusion)
heavy: QVQLVESGGGLVQPGGSLRLSCAASGGSEYRYCVAWFRQAPGQGLEAVARILSDATTSYSDTVKGRFTISRDNSKNTLYLQMNSLRAEDTAVYYCAAEAFRPFTPSDADCTTVLGIDYWGQGTLVTVSS[… human IgG1 Fc …]
notes: Humanized heavy chain only antibody (VHH-Fc); also called 01-9F-Fc-CDRV11-V22
B19: 01-9F-CDR-V11-V1-Fc (Fc fusion)
heavy: QVQLVESGGGLVQPGGSLRLSCAVSGLPYERYCVAWFRQAPGKGLEGVARILSDATTSYSDTVKGRFTISKDNAKNTLYLQMNSLKAEDTAVYYCAAEAFRPFTPSDADCTTVLGIDYWGKGTTVTVSS[… human IgG1 Fc …]
notes: also called 01-9F-Fc-CDRV11-V1

The first assay has as its target T1, human TROP2-his protein. In words: SPR Biacore; cell supernatant captured on anti-human IgG chip, 40 nM human TROP2-his as analyte. From the text: (§1) The purified anti-TROP2 mouse monoclonal antibodies (mAbs) were characterized for binding affinity and binding kinetics by Biacore T200 system (GE healthcare, Pittsburgh, PA, USA). Briefly, goat anti-human IgG (GE healthcare, Cat #BR100839, Human Antibody Capture Kit) was covalently linked to a CM5 chip (carboxy methyl dextran coated chip from GE healthcare #BR100530) via primary amines, using a standard amine coupling kit (GE healthcare, Pittsburgh, PA, USA) provided by Biacore. Un-reacted moieties on the chip (biosensor) surface were blocked with ethanolamine. The anti-TROP2 antibodies of the disclosure and the benchmark at the concentration of 2 μg/ml were respectively flowed onto the chip at a flow rate of 10 μL/min. Then, serially diluted human TROP2-his protein (prepared in-house with SEQ ID NO: 16), or cynomolgus TROP2-his protein (prepared in-house with SEQ ID NO: 19), 2-fold dilution in HBS-EP⁺ buffer (provided by Biacore) starting at 160 nM, were flowed onto the chip at a flow rate of 30 μL/min. The antigen-antibody association kinetics was followed for 2 minutes and the dissociation kinetics was followed for 10 minutes. The association and dissociation curves were fit to a 1:1 Langmuir binding model using BIAcore evaluation software.
For the BIAcore test, cell supernatants containing the 01-9F-Fc variants were respectively flowed onto the chip instead of the purified anti-TROP2 antibodies, at a flow rate of 10 μL/min, and 40 nM human TROP2-his proteins (prepared in-house with SEQ ID NO: 16) in HBS-EP⁺ buffer (provided by Biacore), instead of serially diluted human TROP2-his proteins, were flowed onto the chip at a flow rate of 30 μL/min.
A general note: In SPR one partner is held on a chip, and binding of the other changes the refractive index at the surface.
One may read the Kd as the equilibrium constant for the complex coming apart. The koff is the first-order rate constant of dissociation. Low readings indicate slow dissociation, high ones fast dissociation. The term kon denotes a measure of how fast the partners come together. A low value points to slower complex formation. With B1, binding was characterised by a dissociation constant (Kd) of 0.317 nM, the koff turned out to be 0.000103 s⁻¹ and the kon came out at 325000 M⁻¹ s⁻¹.
Molecule B2 registered a Kd of 0.251 nM, an off-rate (koff) of 9.23e-05 s⁻¹ and a kon of 368000 M⁻¹ s⁻¹.

In another assay the target is T1, human TROP2-his protein. The experiment in a line: SPR Biacore T200; cell supernatant captured on anti-human IgG chip, 40 nM human TROP2-his as analyte.
From the text: as §1
For the BIAcore test, cell supernatants containing humanized 01-9F-CDR-V11 antibodies were respectively flowed onto the chip at a flow rate of 10 μL/min, and 40 nM human TROP2-his protein (prepared in-house with SEQ ID NO: 16) in HBS-EP⁺ buffer (provided by Biacore) were flowed onto the chip at a flow rate of 30 μL/min.
B3 displayed a Kd of 1.44 nM, a dissociation rate constant (koff) of 0.00241 s⁻¹ and a kon of 1.67e+06 M⁻¹ s⁻¹.
Regarding B4, binding was put at a Kd of 1.38 nM, the off-rate (koff) amounted to 0.00192 s⁻¹ and the on-rate constant (kon) was found to be 1.39e+06 M⁻¹ s⁻¹.
On the same counts, the results for B5 are 0.86 nM, 0.00149 s⁻¹ and 1.74e+06 M⁻¹ s⁻¹.
Take B6: the Kd stood at 1.21 nM, the koff is 0.00171 s⁻¹ and the kon came out at 1.42e+06 M⁻¹ s⁻¹.
The like results for B7 were, in that order, 0.643 nM, 0.00121 s⁻¹ and 1.88e+06 M⁻¹ s⁻¹.
On the same counts, the results for B8 are 1.23 nM, 0.00171 s⁻¹ and 1.39e+06 M⁻¹ s⁻¹.
B9 returned a Kd of 0.583 nM, an off-rate (koff) of 0.00118 s⁻¹ and a kon of 2.03e+06 M⁻¹ s⁻¹.
For B10, the Kd came out at 2.47 nM, the koff is 0.00219 s⁻¹ and the kon came out at 887000 M⁻¹ s⁻¹.
On the same counts, the results for B11 are 1.61 nM, 0.00161 s⁻¹ and 998000 M⁻¹ s⁻¹.
On the same counts, the results for B12 are 1.98 nM, 0.00257 s⁻¹ and 1.3e+06 M⁻¹ s⁻¹.
The like results for B13 were, in that order, 1.16 nM, 0.00161 s⁻¹ and 1.4e+06 M⁻¹ s⁻¹.
In turn, B14 displayed a Kd of 0.184 nM, an off-rate constant (koff) of 0.000539 s⁻¹ and an on-rate (kon) of 2.93e+06 M⁻¹ s⁻¹.
On the same counts, the results for B15 are 1.07 nM, 0.0015 s⁻¹ and 1.41e+06 M⁻¹ s⁻¹.
B16: the Kd was found to be 0.802 nM, the dissociation rate constant (koff) was found to be 0.00118 s⁻¹ and the kon is 1.47e+06 M⁻¹ s⁻¹.
B17 had a dissociation constant Kd of 2.37 nM, a koff of 0.0029 s⁻¹ and a kon of 1.23e+06 M⁻¹ s⁻¹.
The like results for B18 were, in that order, 2.14 nM, 0.00237 s⁻¹ and 1.11e+06 M⁻¹ s⁻¹.
The molecule B19 returned a dissociation constant Kd of 0.173 nM, an off-rate constant (koff) of 0.000186 s⁻¹ and a kon of 1.08e+06 M⁻¹ s⁻¹.
